The record followed here is publication PMC3760383 (Structure (London, England : 1993), 2011).

This test addresses T1, His-tagged IFI16 HIN-A domain (residues 192–393) (human, UniProt Q16666-2 192-393).
T1 sequence (looked up): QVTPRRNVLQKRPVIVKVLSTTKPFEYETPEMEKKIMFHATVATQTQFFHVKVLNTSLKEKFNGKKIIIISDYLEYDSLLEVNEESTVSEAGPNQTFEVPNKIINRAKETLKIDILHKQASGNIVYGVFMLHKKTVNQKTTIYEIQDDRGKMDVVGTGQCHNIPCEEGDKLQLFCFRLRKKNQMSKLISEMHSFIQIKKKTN
The test can be described thus: pull-down.

B1: GST-p53 C terminus with the tetramerization domain ([…]) (domain or fragment)
chain: not shown
As for B1, the binding result was “binds”.
